Measurements from PubChem BioAssay AID1508642 (National Center for Advancing Translational Sciences (NCATS), 2021).
In all, about 43,000 compounds went through this assay and about 200 (0.47%) were called active. About 12% were inconclusive and are not listed. The call rests on the fitted dose curve; in most records, active means well fitted cell-killing curve with a large enough effect; inconclusive means small, poorly fitted or top-dose-only effect, or effect the other way; inactive means flat fitted curve, though single readings scatter. The list shows a part of the results.

Test: Cell viability qHTS assay in S16 Pmp22-F2sN cells; further: nearly all actives have a fitted effect of over 65% in size
Conditions: S16 Pmp22-F2sN Schwann cells (luciferase reporters placed in the Pmp22 gene) viability, CellTiter-Glo, 24 h; series mostly up to 57.5 µM; activity change, negative = cytotoxicity: at the top concentration
Procedure, shortened: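 Rat S16 Schwann reporter line, 24 h treatment with library compounds delivered at 23 nL per well. Cell viability by CellTiter-Glo luminescence.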
On the % scale 0 is the no-effect control and ±100 the full control effect.

Row | Structure (SMILES) | activity change, negative = cytotoxicity
1 | O=c1oc2ccccc2cc1-c1nc(-c2cccc(Cl)c2)cs1 | inactive: 8.4%
2 | COc1ccc(Cl)cc1NC(=O)CSc1nc(-c2cccs2)cc(C(F)(F)F)n1 | inactive: 7.37%
3 | Cc1ccccc1CNC(=O)CN1CCSc2ccccc21 | inactive: 11.6%
4 | Nc1nc2nc(-c3ccccc3)cc(=O)n2[nH]1 | inactive: 12.1%
5 | CCc1ccccc1-n1c(SCC(=O)Nc2ccc(C)cc2)nc2n[nH]c(C)c2c1=N | inactive: -6.95%
6 | O=C(c1ccc2c(c1)N(Cc1ccccc1Cl)C(=O)c1ccccc1S2)N1CCCC1 | inactive: -1.1%
7 | CCCCOC(=O)c1ccc(NC(=O)c2ccc3c(c2)CCCN3S(C)(=O)=O)cc1 | inactive: -18.9%
8 | COc1ccc(NC(=O)CN2CCCN(Cc3ccccc3)S2(=O)=O)cc1 | inactive: 1.77%
9 | Cc1ccc(NC(=O)C2CCN(S(=O)(=O)c3ccc4c(c3)CCCC(=O)N4)CC2)c(Br)c1 | inactive: 2.91%
10 | Fc1ccc(CNc2nc(-c3ccc(Cl)cc3)cc(C(F)(F)F)n2)cc1 | inactive: 22.6%
11 | Cc1cccc(NS(=O)(=O)c2ccc3c(c2)n(C)c(=O)n3C)c1C | inactive: 0.286%
12 | O=C(CSc1nnc(CNC(=O)c2ccccc2)n1-c1ccc(F)cc1)Nc1ccccc1F | inactive: 10.4%
13 | O=C(CC1NCCNC1=O)Nc1ccc(F)c(Cl)c1 (configuration not stated) | inactive: 13.8%
14 | Cc1nn(-c2ccc(F)cc2)c(-n2cccc2)c1C(=O)N1CCCCC1C (configuration not stated) | inactive: 17.5%
15 | Cc1cc(NC(=O)c2oc3c(c2C)-c2[nH]ncc2CC3)ccc1Br | inactive: -20.8%
16 | Cc1cc(=O)n2nc(N3CCC(C(=O)NCCCOC(C)C)CC3)sc2n1 | inactive: 27.7%
17 | CCC(C(=O)Nc1cc(-c2cn3cccnc3n2)ccc1C)c1ccccc1 (configuration not stated) | inactive: 2.97%
18 | COc1ccccc1N1CCN(S(=O)(=O)c2ccc3c(c2)CCCN3C(C)=O)CC1 | inactive: -26.8%
19 | CCCCOc1ccc(C(=O)Nc2sc3c(c2C(=O)OCC)CCCCC3)cc1 | inactive: -2.48%
20 | COc1ccc(Nc2ncc(C(=O)Nc3ccc(F)cc3F)c3ccccc23)cc1 | inactive: 1.73%
21 | CCc1ccccc1N(C)C(=O)Nc1cn(CC(C)C)c(=O)c2ccccc12 | inactive: 2.3%

Row | Structure (SMILES) | activity change, negative = cytotoxicity
22 | CCC1CCCCN1S(=O)(=O)c1ccc2c(c1)CCCN2C(C)=O (configuration not stated) | inactive: -12.4%
23 | CCn1cc(C(=O)OCC(=O)Nc2cccc(Cl)c2C)c(=O)c2ccc(C)nc21 | inactive: -3.52%
24 | COCCNC(=O)CN1C(=O)COc2ccc(S(=O)(=O)N3CCOCC3)cc21 | inactive: -4.74%
25 | O=C(CSc1nc(=O)n(Cc2ccco2)c2c1CCC2)NCc1ccccc1Cl | inactive: 4.88%
26 | N#Cc1ccc(NC(=O)COCc2cc(-c3ccc4c(c3)OCO4)on2)cc1 | inactive: 4.58%
27 | COC(=O)c1scc(-c2ccc(C)cc2)c1S(=O)(=O)Nc1ccc(OC(F)(F)F)cc1 | inactive: 18.3%
28 | CCOc1ccc(N2CC(NC(=O)c3ccc(S(=O)(=O)N4CCOCC4)cc3)CC2=O)cc1 (configuration not stated) | inactive: -1.01%
29 | CCOc1ccc(CNC(=O)CCn2c(=O)c3cccn3c3cccnc32)cc1 | inactive: 3.81%
30 | Cc1nc2ccn(Cc3cccnc3)c(=O)c2cc1C(=O)NCc1ccc(Cl)cc1 | inactive: 3.19%
31 | COc1ccccc1CNC(=O)CCCn1nc(C)c2c(C)n(-c3ccc(C)cc3)nc2c1=O | inactive: -4.19%
32 | Cc1ccccc1CNC(=O)CCCn1c(=O)c2cccn2c2ccccc21 | inactive: -11.1%
33 | CC(=O)c1ccc(N2CCN(S(=O)(=O)c3cc(-c4onc(C)c4C)ccc3C)CC2)cc1 | inactive: -15.2%
34 | Cc1cccc2c1-c1sc(C(=O)N3CCN(c4ccc(F)cc4)CC3)cc1CO2 | inactive: 5.13%
35 | COC(=O)c1c(SC)nc2ccccc2c1OCc1ccc(C)cc1C | inactive: 25.8%
36 | Cc1ccc(-c2cc(C(F)(F)F)n3nc(C(=O)Nc4sc5c(c4C#N)CCC(C)C5)cc3n2)cc1 (configuration not stated) | inactive: -4.47%
37 | Cc1ccc2onc(CC(=O)Nc3cc(F)ccc3F)c2c1 | inactive: 4.13%
38 | O=C(CSc1nnc2scc(-c3ccc(Cl)cc3)n12)Nc1ccccc1F | inactive: 23.2%
39 | CC(CNC(=O)c1ccc(CSc2nc3ccncc3n2Cc2cccc(F)c2)cc1)c1ccccc1 (configuration not stated) | inactive: -16.4%
40 | Cc1ccc(C)c(-c2nn(CC(=O)Nc3cc(F)ccc3F)c(=O)c3c2CCCC3)c1 | inactive: -19.3%
41 | CCOc1cccc(CC(=O)N2CCc3c([nH]c4ccccc34)C2c2ccc(C)cc2)c1OCC (configuration not stated) | inactive: -18.6%
42 | COc1ccc(C(=O)Nc2ccc3c(c2)N(C2CCCC2)C(=O)c2ccccc2S3)cc1OC | inactive: -1.99%

Row | Structure (SMILES) | activity change, negative = cytotoxicity
43 | Cc1ccn2c(=O)c(C(=O)NCCc3ccc(S(N)(=O)=O)cc3)c(O)nc2c1 | inactive: 2.81%
44 | Cc1cc(=O)n(Cc2ccc(F)cc2Cl)c2c1c(C)nn2-c1ccccc1 | inactive: -7.54%
45 | CCn1c(=O)c2sccc2n2c(CCCC(=O)N3CCN(c4cc(C)ccc4C)CC3)nnc12 | inactive: 11.8%
46 | COc1ccc(NC(=O)NCc2cccn2Cc2ccc(F)cc2)cc1OC | inactive: 3.17%
47 | Cc1cc(Nc2ccccc2Cl)n2nc(-c3ccco3)nc2n1 | inactive: -0.0836%
48 | COc1ccc(N2C(=O)CSC23C(=O)N(CC(=O)NCc2ccccc2)c2ccccc23)cc1 (configuration not stated) | inactive: 4.35%
49 | Cc1ccc(NCc2ccccc2-c2nnc(-c3ccccc3Cl)o2)cc1Cl | inactive: 12.6%
50 | COc1ccc(S(=O)(=O)NC2(C(F)(F)F)NC(=O)N(CCc3ccc(OC)c(OC)c3)C2=O)cc1 (configuration not stated) | inactive: 4.5%
51 | CS(=O)(=O)NCCc1csc2nc(-c3ccccc3)nn12 | inactive: 2.95%
52 | CCOc1ccc(NC(=O)c2c(NC(=O)c3cccc(C)c3)sc3c2CCC3)cc1 | inactive: 8.96%
53 | CCOC(=O)c1c(NC(=O)CSc2cn(CCNC(=O)c3ccccc3OC)c3ccccc23)sc2c1CCCC2 | inactive: 16.1%
54 | O=C(NCC1CCN(Cc2cccc(F)c2)CC1)c1cc2ccc3cccnc3c2[nH]1 | inactive: -14.9%
55 | CC1=C(c2ccc(C(C)C)cc2)S(=O)(=O)N=C1N1CCC(C(=O)NCc2ccco2)CC1 | inactive: -7.97%
56 | CCOc1ccc(NC(=O)Cn2c(=O)n(Cc3ccccc3)c(=O)c3sc4ccccc4c32)cc1 | inactive: 1.31%
57 | Cc1cc(C)cc(NC(=O)CN2C(=O)CSc3ccc(S(=O)(=O)N4CCCC4)cc32)c1 | inactive: -1.1%
58 | Cc1c(C(=O)NCCc2ccccc2)cccc1-n1cnc2cccnc21 | inactive: 7.99%
59 | CCc1ccc(NC(=O)CC2C(=O)N(c3ccc(OC)cc3)C(=O)N2Cc2ccc(OC)cc2)cc1 (configuration not stated) | inactive: -2.28%
60 | COc1ccccc1N1CCN(S(=O)(=O)CCNC(=O)COc2ccc(F)cc2)CC1 | inactive: -9.23%
61 | Cc1ccc(CNC(=O)Cn2c(=O)cc(-c3ccccc3)c3c(C)nn(C)c32)cc1 | inactive: 1.58%
62 | Cc1ccc(C(=O)c2oc3ccccc3c2NC(=O)c2cc(-c3ccccc3)on2)cc1 | inactive: -1.31%
